# Reference: patent US20150337037A1 (MSM PROTEIN TECHNOLOGIES, published 2015)
# T1: mouse CCR6 (mouse, UniProt O54689 1-367)
# T1 construct: whole, on cells; gene derived from a cDNA library; also called CCR6 mouse
# T1 sequence (looked up): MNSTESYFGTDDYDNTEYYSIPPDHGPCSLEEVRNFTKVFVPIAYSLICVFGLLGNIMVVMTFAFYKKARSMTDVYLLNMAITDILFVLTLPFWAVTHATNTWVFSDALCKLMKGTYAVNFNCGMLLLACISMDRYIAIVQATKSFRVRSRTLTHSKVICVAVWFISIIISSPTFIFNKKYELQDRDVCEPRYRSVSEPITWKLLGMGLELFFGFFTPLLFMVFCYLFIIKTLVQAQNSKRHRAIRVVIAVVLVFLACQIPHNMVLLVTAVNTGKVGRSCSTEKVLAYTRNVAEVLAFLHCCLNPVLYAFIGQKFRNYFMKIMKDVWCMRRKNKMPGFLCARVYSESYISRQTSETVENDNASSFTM
# T2: human chemokine receptor CCR6 (human, UniProt P51684 1-374)
# T2 construct: whole, on cells; gene was synthesized (codon-optimized); a C-terminal tag may be present on the expressed protein; also called CCR6 human; human CCR6
# T2 sequence (looked up): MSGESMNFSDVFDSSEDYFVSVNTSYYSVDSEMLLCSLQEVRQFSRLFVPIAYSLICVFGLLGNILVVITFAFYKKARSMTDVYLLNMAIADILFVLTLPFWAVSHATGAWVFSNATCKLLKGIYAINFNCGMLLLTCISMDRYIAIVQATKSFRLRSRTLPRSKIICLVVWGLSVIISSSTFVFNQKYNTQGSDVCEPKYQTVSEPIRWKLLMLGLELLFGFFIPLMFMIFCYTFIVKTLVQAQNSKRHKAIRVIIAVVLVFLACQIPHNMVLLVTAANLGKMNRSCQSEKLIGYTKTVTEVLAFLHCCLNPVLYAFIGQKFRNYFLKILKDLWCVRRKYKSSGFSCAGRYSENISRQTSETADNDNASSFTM
# Key:
# mouse CCR6 [1] = target: T1, mouse CCR6; assay: flow cytometry on cells expressing the target, IgG1 titration (repeat of Table 2)
# cynomolgus monkey CCR6 [2] = target: T3, cynomolgus monkey CCR6 (cynomolgus monkey (Macaca Fascicularis)); assay: as above
# T3 construct: whole, on cells; gene derived from a total RNA library; also called CCR6 cyno; cyno CCR6
# [3] = target: T2, human chemokine receptor CCR6; assay: as above
# mouse CCR6 [4] = target: T1, mouse CCR6; assay: flow cytometry on cells expressing the target, IgG1 titration, anti-human Fc-PE
# cynomolgus monkey CCR6 [5] = target: T3, cynomolgus monkey CCR6; assay: as above
# [6] = target: T2, human chemokine receptor CCR6; assay: as above
binder,measurement,setting,value
"MSM-R623 IgG1 (antibody, Fully human IgG1) heavy: EVQLLESGGGLVQPGGSLRLSCAASGFTFSNYYIHWVRQAPGKGLEWVSTIGSSNGTTYYADSVKGRFTISRDNSKNTLYLQMNSLRAEDTAVYYCARGRAVKLAYYSGFDYWGQGTLVTVSSASTKGPSVFPLAPSSKSTSGGTAALGCLVKDYFPEPVTVSWNSGALTSGVHTFPAVLQSSGLYSLSSVVTVPSSSLGTQTYICNVNHKPSNTKVDKRV[sequence of human IgG1 Fc not given] light: [sequence of about 100 residues not given][sequence of about 120 residues not given]",EC50,mouse CCR6 [1],1.8 nM
same,EC50,cynomolgus monkey CCR6 [2],3.2 nM
same,EC50,[3],2.8 nM
same,EC50,mouse CCR6 [4],1.8 nM
same,EC50,cynomolgus monkey CCR6 [5],3.2 nM
same,EC50,[6],2.8 nM
